The source gives no read counts; variants with many changes may rest on few reads.
B1: LINE1-mini (parent)
chain: GGCAGAGCUCAACACAGCGUGGCAAAGUGGCUGUGGCUAGACUGCC

Variants of: B1
Test: self-cleavage, relative activity (ratio to wild type); higher = more cleavage; in vitro, sequencing; the parent is a self-cleaving ribozyme

Row | Variant | self-cleavage
1 | AGCAGAGCUCACCACAGCGUGGGAAAGUGGCUGUGGCUAGACUGCC [G1A A12C C23G] | 0.03
2 | AGCAGAGCUCAACAAAGCGUGGCAAAGUGGUUGUGGCUAGACUGCC [G1A C15A C31U] | 0
3 | AGCAGAGCUCAACACUACGUGGCAAAGUGGCUGCGGCUAGACUGCC [G1A A16U G17A U34C] | 0.04
4 | AGCAGAGAUCCACACAGCGUGGCAGAUUGCCUGUGGCUAGACUGCC [G1A C8A A11C A25G G27U G30C] | 0.02
5 | AGCAGAGCUAAACACAGCGUGGCAAAGUGGGUGUGGCUCGACUGCC [G1A C10A C31G A39C] | 0.01
6 | AGCAGAGCUCAACCCAGCGUGGCCAAGUGGCUGUGGUUAGACUGCC [G1A A14C A24C C37U] | 0.03
7 | AGCAGAGCUCAACACAGCGUGGCAACGUGGCUGUGGCUAGACUGAC [G1A A26C C45A] | 1.38
8 | AGAAGAGAUCAACACAGCGUGGCAAAGUGGCUGUGGCUAGUCUGCC [G1A C3A C8A A41U] | 2.62
9 | AGGAGUGCUCAACACAGCGUGGCCAAGUGGCUGUGGUUAGACUGCC [G1A C3G A6U A24C C37U] | 1.17
10 | AGGAGAGCUCAACACAGCGUGGCAAAGUGGUUGGCGCUAGACUGGC [G1A C3G C31U U34G G35C C45G] | 0.18
11 | AGCAGAGCUGAACACUGCGGGCCAAAGUGGCUGUGGCUAGACUGCC [G1A C10G A16U U20G G22C] | 0.07
12 | AGAAGAGCUCAACACAGCGUGGCAAAAUGGCUGUGGCUAGACUGCC [G1A C3A G27A] | 1.44
13 | AGCAGAGCUCAAAACAGCGUGGCAAAGUGGCUGUGGCUAGAGUGCC [G1A C13A C42G] | 0.05
14 | AGCAGCGCUCAACACAGCGUGGUAAAGUGGCUGUGGCUCCACUGCC [G1A A6C C23U A39C G40C] | 0.03
15 | AGUAGAGCUAAACGCACCGUGGCAAAGUGGCUGUGGCUAGACUGCC [G1A C3U C10A A14G G17C] | 0.12
16 | AGCAGCGCUCAACACAGCGUGGCAAAGUGGCUUUGGCUCGACUGCC [G1A A6C G33U A39C] | 0.07
17 | AGCAGAGCUCUACACAGAGUGGCAAAGUGGCUGUGGCUAGACUGCC [G1A A11U C18A] | 0.05
18 | AGGAAAGCUCAAGACAGCGUGGCAAUCUGGCUGUGGCUAGACUGCC [G1A C3G G5A C13G A26U G27C] | 1.34
19 | AGCAGAGCUCAACUCAGCGUGCCAAAGUGGCUGUGGCUAUACUGCC [G1A A14U G22C G40U] | 0.05

Row | Variant | self-cleavage
20 | AGCAGAGGUAAACACAGCGUGGCAAAUUGGCUGUGGCUAGACUGAC [G1A C8G C10A G27U C45A] | 0.01
21 | AGUGGAGCUCAACACAGGGUGGGAAAGUGGCUGUGGCUAGACUGCC [G1A C3U A4G C18G C23G] | 0.14
22 | AGCAGAGCUCACGACAGCGUGGCAAAGUGGCUUUGGAUAGACAGCC [G1A A12C C13G G33U C37A U43A] | 0.01
23 | AGCAGAGCUCAACACAGCGUGGCUAAGUGGAUGUGGCUAAACUGCC [G1A A24U C31A G40A] | 0.04
24 | AGCAGAGCUCAACACAGCGUGGCAGAGUGGCAGUGGAUAGACUGCC [G1A A25G U32A C37A] | 0.04
25 | AGCAGAGCUAAAGACAGCGUGGCAAAGUGGCUGUGGCUAGACUGCC [G1A C10A C13G] | 0.04
26 | AGCAGAGCUAAACACAGCGUGUCGAAGUGGCUGUGGCGAGAGUGCC [G1A C10A G22U A24G U38G C42G] | 0.04
27 | AGUAGAGCUCAACACAGCGUUGCAAAGUGGCUGUGGCUACACUGUC [G1A C3U G21U G40C C45U] | 0.1
28 | AGCAGAGAUCCACACAGCGUGGCAAAGUGUCUGUGGCUAGACUGCC [G1A C8A A11C G30U] | 0.02
29 | AGCAGAGUUCAACACAGCGUGGCGAAGUGGCUGUGGGUAGACUGCC [G1A C8U A24G C37G] | 0.34
30 | AGCAGAGCUCAACACAGCGUGGCAAUGUGGCUGUGGCUGUACUGCC [G1A A26U A39G G40U] | 0.2
31 | AGCAGCGCUCAAAACAGCGUGUCAAAUUGCCUGUGGCUAGAUUGCG [G1A A6C C13A G22U G27U G30C C42U C46G] | 0.03
32 | AGCAGAGCUUAACACAGCCUGACAACCCGGCUGUGGCUAGCCUGCC [G1A C10U G19C G22A A26C G27C U28C A41C] | 0.03
33 | AGCCGAGCUCAACACACAGUGGCACAGUGGCUGUGUCUAGUCUGCC [G1A A4C G17C C18A A25C G36U A41U] | 0.01
34 | AGCAGAGCUCAUCACAGCGUGGCAAAGUGGCUGUGACUAGACUGCC [G1A A12U G36A] | 0.02
35 | AGAAGUGCUCAACACAGCGUGGCAAAGUGGCUGUCGCUAGACUGCC [G1A C3A A6U G35C] | 0.57
36 | AGCCGAGCUCAACACAGCGUGGCAAAGUGGCUUUGGCUAGGCUGCC [G1A A4C G33U A41G] | 0.4
37 | AGCAGAGCUAAAAACAGCGUGGCAAAGUGGCUUUGGCUAGACUACC [G1A C10A C13A G33U G44A] | 0.05
38 | AGUAGAGCUCAACACCGCUUGGCUAAGUGCCUGUGGCUAGACCGCC [G1A C3U A16C G19U A24U G30C U43C] | 0.22

Row | Variant | self-cleavage
39 | AGAAGAGCUCGACACAGCGUGGCAAAGUGGCUGUGGCUAGAAUGCC [G1A C3A A11G C42A] | 0.06
40 | AGCAGAGCUCAACACAGCGUGGCAAAGUGGCUGUGGCUUGAAUGCC [G1A A39U C42A] | 0.08
41 | AGCAGAGCUCAACACAGCGUGGCACAGUGGCUGGGGCUAGACUGCC [G1A A25C U34G] | 0.11
42 | AGCAGAGCUCAACACAGCGUGGCAAGGCCGCUGUGGCAAGACUGCC [G1A A26G U28C G29C U38A] | 0.01
43 | AGCGGAGCUCAACACAGCUUAGCAAAGUGGCUGAAGCAAGACUGCC [G1A A4G G19U G21A U34A G35A U38A] | 0.03
44 | AGCAGAGCUAAACACAGCGUGGCAAAGUGGCUUUGGCUAGACUGCC [G1A C10A G33U] | 0.04
45 | AGCAGAGCUCAACACGGCGUGGCAAAGUGGCAGUGGCUAGACUGCC [G1A A16G U32A] | 0.06
46 | AGCAGAGCUCAGCACAGCGUGGCAAACUCGCUCUGGCUAGACUGCC [G1A A12G G27C G29C G33C] | 0.03
47 | AGCAGUGCUCAACACAGCGUGGCACAGUGGCUGUGGCUAGACUGCC [G1A A6U A25C] | 2.89
48 | AGUAGAGCUCAACACAGCGUGGCAAAGUGGCUGAGGCUAGACUGCC [G1A C3U U34A] | 0.17
49 | AGCAGCGCUAAACACAGCAUGGCGAAGUGGCUGUGGCUAGACUGCC [G1A A6C C10A G19A A24G] | 0.1
50 | AGAAGAGCUAUACAGAGCGUGGCAAAGUGGCUGUGGCUAGACUGCC [G1A C3A C10A A11U C15G] | 0.2
51 | AGCAGAGGUCAACACAGCGUGGCAGAGUGGCUCUGGAUAGACGGCC [G1A C8G A25G G33C C37A U43G] | 0
52 | AGCAGAGCUCAACACAGCGUGGCAAGGUGGCUGCGGCUAGACUGCC [G1A A26G U34C] | 0.09
53 | AGCAGAGCUCAAUACAGGGUGGCACAGUGGCUGUGGCUAGACUGCC [G1A C13U C18G A25C] | 0
54 | AGCAGAGCUUAACAUAGCGUGGCAAAAUGGCUGUGUCUAGACUGCC [G1A C10U C15U G27A G36U] | 0.06
55 | AGCAGAGCUGAACACAGCAUAGCAAAGUGGUUGUGGCUAGACUGCC [G1A C10G G19A G21A C31U] | 0.3
56 | AGCAGAGUUCAACACAGCGUGGCAAAGUGGCUGUCGCUAGACUUCC [G1A C8U G35C G44U] | 0.63

From the RNAGym collection of RNA variant scans (doi:10.7554/elife.90254)
